In all, about 44,000 compounds went through this assay and about 340 (0.77%) were called active. Roughly 5% stayed inconclusive and do not appear here. Calls follow the shape of the dose curve; as a rule, active = well fitted inhibition curve with a large enough effect; inconclusive = small, poorly fitted or top-dose-only effect; inactive = flat fitted curve, though single readings scatter. Some of the results follow.
Assay: Acumen qHTS Assay for Inhibitors of the mTORC1 Signaling Pathway in MEF (Tsc2-/-, p53-/-) Cells: Sytravon;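 also: plate controls were DMSO for no effect and rapamycin for full effect; nearly all actives have a fitted effect of over 50% in size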
Settings: phospho-rpS6 immunofluorescence/PI, 24 h; series mostly up to 38.3 µM; activity change, negative = inhibition: at the top concentration
Procedure, shortened: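 Readout is phospho-S6 Alexa 488 signal normalized to PI per well, reported as % active cells with thresholds set from rapamycin (7.5 nM) and DMSO controls. Cells: Tsc2-/-, p53-/- MEFs, 24 hrs compound at 37 C; PI cell number serves as viability.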

Activity change, negative = inhibition, inactive:
COCCOC(=O)c1c(C)n(S(=O)(=O)c2ccc(C)cc2)c2ccc(NS(=O)(=O)c3ccc(C)cc3)cc12 -11.3%
COc1ccc2cc3cc(C(=O)NCc4ccc(C)cc4)oc3nc2c1 -3.02%
Cc1cc(C)cc(NC(=O)CSc2nc3c(oc4ccccc43)c(=O)n2-c2ccccc2F)c1 0.422%
COc1ccc(OC)c(CCNC(=O)c2ccc3c(c2)N(Cc2ccc(C)cc2)CCS3)c1 -17.8%
COc1ccc(F)cc1S(=O)(=O)NCCc1c(C)[nH]c2c(Cl)cccc12 7.1%
Cc1ccc(-c2nnc(Nc3ccc(O)cc3)c3ccccc23)cc1S(=O)(=O)N1CCN(C)CC1 2%
COc1ccc(Nc2cc(C(=O)NCCc3ccc(C)cc3)c3ccccc3n2)c(OC)c1 -17.1%
CCOC(=O)N1CCC(NC(=O)c2c(C)nn(-c3ccc(C)cc3)c2-n2cccc2)CC1 2.69%
CCOCCCNC(=O)C1CCN(c2nn3cc(-c4ccc(F)cc4)nc3s2)CC1 -1.84%
CCCn1c2ccccc2c2cnn(CC(=O)NCCc3ccc(OCC)cc3)c(=O)c21 -14.7%
CCOc1ccc(-c2nn(CC(=O)NC3CCCCC3)c3c2cnc2ccc(C)cc23)cc1 -0.632%
Cc1ccc(C(=O)NCCc2ccc(Cl)cc2)cc1-n1c(C)nc2cccnc21 3.78%
CCOc1ccc(NC(=O)CCNS(=O)(=O)c2ccc3c(c2)oc(=O)n3C)cc1 -3.41%
COc1ccc(NC(=O)Cn2nnc3sc4c(c3c2=O)CCC(C)C4)c(OC)c1 (stereo not given) 6.17%
COc1ccccc1CNC(=O)c1ccc2c(c1)N(Cc1cccc(C)c1)C(=O)c1ccccc1S2(=O)=O 2.61%
Cc1ccc(C)c(Cn2c3ccccc3c3cnn(CC(=O)NCCC4=CCCCC4)c(=O)c32)c1 -4.79%
COc1ccc(Cl)cc1NC(=O)c1sc(-n2nc(C)c(Cc3ccccc3)c2C)nc1C 1.84%
CCn1c(=O)c2cc(C(=O)N(CCN(C)C)Cc3ccccc3)sc2c2ccccc21 -2.4%
CCOc1cc(C(=O)N2CC(=O)Nc3ccc(C)cc3C2c2ccccc2)cc(OCC)c1OCC (stereo not given) -5.1%
Cc1nnc(SCc2ccccc2)c2cc3sccc3n12 -6.56%
O=S(=O)(Nc1cccc(-c2ccc(N3CCCC3)nn2)c1)c1ccccc1C(F)(F)F -17.2%
COCCCNC(=O)CSC1=Nc2ccccc2C2=NC(CCC(=O)NCc3ccccc3OC)C(=O)N12 (stereo not given) 1.11%
CCc1ccc(CN(Cc2ccco2)C(=O)c2ccc(OC)cc2)cc1 -6.8%
CCc1ccc(CNC(=O)CCC(=O)N2Cc3cccc(OC)c3Oc3ncccc32)cc1 0.792%
Cc1cc(C)cc(OC(C)C(=O)Nc2nonc2-c2ccc(Br)cc2)c1 (stereo not given) 0.71%
Cc1ccccc1NC(=O)CSc1nnc(C)c(=O)[nH]1 -1.85%
CCOc1cccc(CNC(=O)c2ccc(N3CCCC3)c(NC(=O)NCc3ccc(F)cc3)c2)c1 18.3%
Cc1ccc(Cl)cc1N(C)C(=O)Cn1nc(Cc2cccnc2)c2ccccc2c1=O -18.5%
Nc1c(-c2nc(-c3cccs3)no2)nnn1-c1ccccc1Cl -6.16%
O=C(NCc1ccco1)C1CCN(C(=O)N2CCOc3ccccc32)CC1 1.08%
COCCn1c(CNC(=O)c2ccc(C)cc2)nc2cccnc21 -0.701%
COc1ccccc1-c1nc2c3c(-c4ccccc4)c(-c4ccccc4)oc3ncn2n1 9.79%
CCN(CC)CCOC(=O)c1ccc(NC(=O)Cn2ncc3c([nH]c4ccc(C)cc43)c2=O)cc1 5.91%
Cc1ccccc1CS(=O)(=O)CC1Nc2ccc(C(=O)NCc3ccc(Cl)cc3)cc2NC1=O (stereo not given) -9.89%
Cc1ccc(-n2nc(C)c(C(=O)NCCCN3CCN(c4ccc(F)cc4)CC3)c2-n2cccc2)cc1 -15.4%
Cc1ccc(C)c(Cn2c3ccccc3c3cnn(CC(=O)NCCCc4ccccc4)c(=O)c32)c1 -13.1%
CCOc1ccc(-c2nonc2NC(=O)c2oc3c(C)c(C)ccc3c2C)cc1OCC -6.28%
Cc1ccccc1CNC(=O)C1CCN(c2nnc(-n3c(C)ccc3C)s2)CC1 0.223%
Cc1cccc(NC(=O)N2CCC(CN3CCC(C)CC3)CC2)c1C -9.91%
CC(=O)Nc1c(C)nn(-c2ccccc2)c1N1CCC(C(=O)Nc2ccc(F)cc2Cl)CC1 4.31%
CCc1cccc(CC)c1NC(=O)C(CC)n1nc(C)n2c(cc3cc(C)ccc32)c1=O (stereo not given) -3.81%
CCOC(=O)c1c(C)[nH]c(C)c1S(=O)(=O)N1CCCC(C(=O)Nc2ccccc2OCC)C1 (stereo not given) -10.6%
Cc1ccc2c(c1)C(c1ccccc1)N(C(=O)c1ccccc1F)CC(=O)N2 (stereo not given) -1.1%
CCCn1c(SCc2nc(-c3cc(OC)ccc3OC)no2)nnc1-c1ccc(Cl)cc1 -1.47%
CCOC(=O)c1cccc(NC(=O)c2cc3cc4ccc(C)cc4nc3o2)c1 -5.09%
CCN1CCN(c2csc3ccc(C)cc3c2=O)CC1 4.77%
Cc1ccc(-n2ncc(C(=O)Nc3ccc4c(c3)OCCO4)c2C2CCN(C(=O)OC(C)(C)C)CC2)cc1 1.88%
Cc1ccccc1-c1noc(-c2cc3ccccc3oc2=O)n1 5.43%
Cc1ccc(-c2nc(CS(=O)(=O)CC(=O)N3CCN(c4cccc(C)c4C)CC3)c(C)o2)cc1 -2.31%
CC1CCN(S(=O)(=O)c2ccc3c(c2)oc(=O)n3CC(=O)NC(C)c2ccccc2)CC1 (stereo not given) -10.3%
CCCc1ccc(OC(C)C(=O)Nc2sc3c(c2C(=O)OC)CCCCC3)cc1 (stereo not given) 3.41%
CSc1nc(Nc2cccc(C)c2)c(C#N)c(-c2ccccc2)n1 -6.01%
CNc1c(NC(=O)c2cc(OC)cc(OC)c2)c(=O)oc2ccccc12 3.19%
Cn1c(SCC(=O)N2CCCc3ccccc32)ncc(C(=O)Nc2ccc(F)cc2)c1=O -2.3%
CCOC(=O)c1cnc2ccc(OC)cc2c1NCCc1ccc(OC)c(OC)c1 -16.9%
Cc1cccc(CNC(=O)c2cccc(NC(=O)N3CCSc4ncccc43)c2)c1 -10.2%
COc1ccc2c(c1)c1c(c(=O)n(-c3ccc(C)cc3)c(=O)n1CC(=O)N1CCCC1)n2C -8.74%
CCOc1ccc(-n2ccn3c(CC(C)CC(=O)O)nnc3c2=O)cc1 (stereo not given) -9.71%
Cc1ccccc1-c1nc2cc(NC(=O)c3cccc(OCCC(C)C)c3)ccc2o1 -11.1%
CCC12CN3CC(C)(CN(C1)C3c1ccccc1C)C2=O (stereo not given) 3.05%
